# T1: human CD24 protein (ACRO) (human, UniProt P25063 27-59)
# T1 construct: also called analyte human CD24 protein
# T1 chain (looked up): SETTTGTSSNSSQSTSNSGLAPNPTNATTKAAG
# Biological target: T1, human CD24 protein (ACRO)
# Test: BLI (ForteBio Octet RED96e), antibody immobilised, human CD24 protein as analyte
# Description: ForteBio […] (BLI) was used to detect the affinity of humanized antibodies. The sample to be tested (solidified) was diluted to 20 μg/mL with 0.02% PBST (buffer). The analyte human CD24 protein (ACRO) was diluted to 100 nM with 0.02% PBST (buffer) as the initial concentration, and then diluted by double gradient for 7 gradients starting from this concentration, and a negative control (buffer) was performed.
# The molecular interaction analysis instrument (ForteBio; Octet RED96e) was operated, and 200 μL of curing buffer (0.02% PBST) was added to a pre-wetted plate, and the sensor was pre-wetted for 5-10 min. Diluted samples and other reagents for assay were added into wells in the sample plate corresponding to the pre-wetted sensor.
row,Binder,Kd [nM]
1,"humanized antibody hu-02-L2H6 (antibody, human IgG1, kappa, Humanized from ms-02: light chain L2, heavy chain H6) heavy: EVQLQESGPGLVKPSQTLSLTCTVSGYSITSGYTWHWIRQFPGNKLEWIGHIQYTGNTKYNPSLESRVTISVDTSKNQFSLKLSSVTAADTATYYCARGSTNSNDYWGQGTLVTVSS[human IgG1 constant region not written out] light: DIVMTQSPDSLAVSLGERATINCKSSQSLLYSNDQKNYLAWYQQKPGQSPKLLIYWASTRESGVPDRFSGSGSGTDFTLTISSLQAEDVAVYYCQQYFIYPLTFGGGTKLELKRTVAAPSVFIFPPSDEQLKSGTASVVCLLNNFYPREAKVQWKVDNALQSGNSQESVTEQDSKDSTYSLSSTLTLSKADYEKHKVYACEVTHQGLSSPVTKSFNRGEC",25.8
2,"humanized antibody hu-02-L2H1 (antibody, human IgG1, kappa, Humanized from ms-02: light chain L2, heavy chain H1) heavy: QVQLQESGPGLVKPSQTLSLTCTVSGYSITSGYTWHWIRQHPGKGLEWIGHIQYTGNTKYNPSLESRVTISVDTSKNQFSLKLSSVTAADTAVYYCARGSTNSNDYWGQGTLVTVSS[human IgG1 constant region not written out] light: DIVMTQSPDSLAVSLGERATINCKSSQSLLYSNDQKNYLAWYQQKPGQSPKLLIYWASTRESGVPDRFSGSGSGTDFTLTISSLQAEDVAVYYCQQYFIYPLTFGGGTKLELKRTVAAPSVFIFPPSDEQLKSGTASVVCLLNNFYPREAKVQWKVDNALQSGNSQESVTEQDSKDSTYSLSSTLTLSKADYEKHKVYACEVTHQGLSSPVTKSFNRGEC",32.7
3,"humanized antibody hu-02-L2H8 (antibody, human IgG1, kappa, Humanized from ms-02: light chain L2, heavy chain H8) heavy: EVQLQESGPGLVKPSQTLSLTCTVSGYSITSGYTWHWIRQFPGNKLEWMGHIQYTGNTKYNPSLESRITISRDTSKNQFSLKLSSVTAADTATYYCARGSTNSNDYWGQGTLVTVSS[human IgG1 constant region not written out] light: DIVMTQSPDSLAVSLGERATINCKSSQSLLYSNDQKNYLAWYQQKPGQSPKLLIYWASTRESGVPDRFSGSGSGTDFTLTISSLQAEDVAVYYCQQYFIYPLTFGGGTKLELKRTVAAPSVFIFPPSDEQLKSGTASVVCLLNNFYPREAKVQWKVDNALQSGNSQESVTEQDSKDSTYSLSSTLTLSKADYEKHKVYACEVTHQGLSSPVTKSFNRGEC",8.23
4,"humanized antibody hu-02-L3H2 (antibody, human IgG1, kappa, Humanized from ms-02: light chain L3, heavy chain H2) heavy: QVQLQESGPGLVKPSQTLSLTCTVSGYSITSGYTWHWIRQHPGKGLEWIGHIQYTGNTKYNPSLESRVTISVDTSKNQFSLKLSSVTAADTATYYCARGSTNSNDYWGQGTLVTVSS[human IgG1 constant region not written out] light: DIVMTQSPSSLAVSLGERATINCKSSQSLLYSNDQKNYLAWYQQKPGQSPKLLIYWASTRESGVPDRFSGSGSGTDFTLTISSLQAEDVAVYYCQQYFIYPLTFGGGTKLELKRTVAAPSVFIFPPSDEQLKSGTASVVCLLNNFYPREAKVQWKVDNALQSGNSQESVTEQDSKDSTYSLSSTLTLSKADYEKHKVYACEVTHQGLSSPVTKSFNRGEC",22.7
5,"humanized antibody hu-02-L3H3 (antibody, human IgG1, kappa, Humanized from ms-02: light chain L3, heavy chain H3) heavy: QVQLQESGPGLVKPSQTLSLTCTVSGYSITSGYTWHWIRQHPGNGLEWIGHIQYTGNTKYNPSLESRVTISVDTSKNQFSLKLSSVTAADTATYYCARGSTNSNDYWGQGTLVTVSS[human IgG1 constant region not written out] light: DIVMTQSPSSLAVSLGERATINCKSSQSLLYSNDQKNYLAWYQQKPGQSPKLLIYWASTRESGVPDRFSGSGSGTDFTLTISSLQAEDVAVYYCQQYFIYPLTFGGGTKLELKRTVAAPSVFIFPPSDEQLKSGTASVVCLLNNFYPREAKVQWKVDNALQSGNSQESVTEQDSKDSTYSLSSTLTLSKADYEKHKVYACEVTHQGLSSPVTKSFNRGEC",43.5
6,"humanized antibody hu-02-L3H4 (antibody, human IgG1, kappa, Humanized from ms-02: light chain L3, heavy chain H4) heavy: QVQLQESGPGLVKPSQTLSLTCTVSGYSITSGYTWHWIRQHPGNKLEWIGHIQYTGNTKYNPSLESRVTISVDTSKNQFSLKLSSVTAADTATYYCARGSTNSNDYWGQGTLVTVSS[human IgG1 constant region not written out] light: DIVMTQSPSSLAVSLGERATINCKSSQSLLYSNDQKNYLAWYQQKPGQSPKLLIYWASTRESGVPDRFSGSGSGTDFTLTISSLQAEDVAVYYCQQYFIYPLTFGGGTKLELKRTVAAPSVFIFPPSDEQLKSGTASVVCLLNNFYPREAKVQWKVDNALQSGNSQESVTEQDSKDSTYSLSSTLTLSKADYEKHKVYACEVTHQGLSSPVTKSFNRGEC",32.6
7,"humanized antibody hu-02-L2H4 (antibody, human IgG1, kappa, Humanized from ms-02: light chain L2, heavy chain H4) heavy: QVQLQESGPGLVKPSQTLSLTCTVSGYSITSGYTWHWIRQHPGNKLEWIGHIQYTGNTKYNPSLESRVTISVDTSKNQFSLKLSSVTAADTATYYCARGSTNSNDYWGQGTLVTVSS[human IgG1 constant region not written out] light: DIVMTQSPDSLAVSLGERATINCKSSQSLLYSNDQKNYLAWYQQKPGQSPKLLIYWASTRESGVPDRFSGSGSGTDFTLTISSLQAEDVAVYYCQQYFIYPLTFGGGTKLELKRTVAAPSVFIFPPSDEQLKSGTASVVCLLNNFYPREAKVQWKVDNALQSGNSQESVTEQDSKDSTYSLSSTLTLSKADYEKHKVYACEVTHQGLSSPVTKSFNRGEC",27.9
8,"humanized antibody hu-02-L2H2 (antibody, human IgG1, kappa, Humanized from ms-02: light chain L2, heavy chain H2) heavy: QVQLQESGPGLVKPSQTLSLTCTVSGYSITSGYTWHWIRQHPGKGLEWIGHIQYTGNTKYNPSLESRVTISVDTSKNQFSLKLSSVTAADTATYYCARGSTNSNDYWGQGTLVTVSS[human IgG1 constant region not written out] light: DIVMTQSPDSLAVSLGERATINCKSSQSLLYSNDQKNYLAWYQQKPGQSPKLLIYWASTRESGVPDRFSGSGSGTDFTLTISSLQAEDVAVYYCQQYFIYPLTFGGGTKLELKRTVAAPSVFIFPPSDEQLKSGTASVVCLLNNFYPREAKVQWKVDNALQSGNSQESVTEQDSKDSTYSLSSTLTLSKADYEKHKVYACEVTHQGLSSPVTKSFNRGEC",35.8
9,"humanized antibody hu-02-L2H3 (antibody, human IgG1, kappa, Humanized from ms-02: light chain L2, heavy chain H3) heavy: QVQLQESGPGLVKPSQTLSLTCTVSGYSITSGYTWHWIRQHPGNGLEWIGHIQYTGNTKYNPSLESRVTISVDTSKNQFSLKLSSVTAADTATYYCARGSTNSNDYWGQGTLVTVSS[human IgG1 constant region not written out] light: DIVMTQSPDSLAVSLGERATINCKSSQSLLYSNDQKNYLAWYQQKPGQSPKLLIYWASTRESGVPDRFSGSGSGTDFTLTISSLQAEDVAVYYCQQYFIYPLTFGGGTKLELKRTVAAPSVFIFPPSDEQLKSGTASVVCLLNNFYPREAKVQWKVDNALQSGNSQESVTEQDSKDSTYSLSSTLTLSKADYEKHKVYACEVTHQGLSSPVTKSFNRGEC",32.5
10,"humanized antibody hu-02-L2H7 (antibody, human IgG1, kappa, Humanized from ms-02: light chain L2, heavy chain H7) heavy: EVQLQESGPGLVKPSQTLSLTCTVSGYSITSGYTWHWIRQFPGNKLEWIGHIQYTGNTKYNPSLESRITISRDTSKNQFSLKLSSVTAADTATYYCARGSTNSNDYWGQGTLVTVSS[human IgG1 constant region not written out] light: DIVMTQSPDSLAVSLGERATINCKSSQSLLYSNDQKNYLAWYQQKPGQSPKLLIYWASTRESGVPDRFSGSGSGTDFTLTISSLQAEDVAVYYCQQYFIYPLTFGGGTKLELKRTVAAPSVFIFPPSDEQLKSGTASVVCLLNNFYPREAKVQWKVDNALQSGNSQESVTEQDSKDSTYSLSSTLTLSKADYEKHKVYACEVTHQGLSSPVTKSFNRGEC",12.3
11,"humanized antibody hu-02-L3H1 (antibody, human IgG1, kappa, Humanized from ms-02: light chain L3, heavy chain H1) heavy: QVQLQESGPGLVKPSQTLSLTCTVSGYSITSGYTWHWIRQHPGKGLEWIGHIQYTGNTKYNPSLESRVTISVDTSKNQFSLKLSSVTAADTAVYYCARGSTNSNDYWGQGTLVTVSS[human IgG1 constant region not written out] light: DIVMTQSPSSLAVSLGERATINCKSSQSLLYSNDQKNYLAWYQQKPGQSPKLLIYWASTRESGVPDRFSGSGSGTDFTLTISSLQAEDVAVYYCQQYFIYPLTFGGGTKLELKRTVAAPSVFIFPPSDEQLKSGTASVVCLLNNFYPREAKVQWKVDNALQSGNSQESVTEQDSKDSTYSLSSTLTLSKADYEKHKVYACEVTHQGLSSPVTKSFNRGEC",44.7
12,"humanized antibody hu-02-L3H5 (antibody, human IgG1, kappa, Humanized from ms-02: light chain L3, heavy chain H5) heavy: QVQLQESGPGLVKPSQTLSLTCTVSGYSITSGYTWHWIRQFPGNKLEWIGHIQYTGNTKYNPSLESRVTISVDTSKNQFSLKLSSVTAADTATYYCARGSTNSNDYWGQGTLVTVSS[human IgG1 constant region not written out] light: DIVMTQSPSSLAVSLGERATINCKSSQSLLYSNDQKNYLAWYQQKPGQSPKLLIYWASTRESGVPDRFSGSGSGTDFTLTISSLQAEDVAVYYCQQYFIYPLTFGGGTKLELKRTVAAPSVFIFPPSDEQLKSGTASVVCLLNNFYPREAKVQWKVDNALQSGNSQESVTEQDSKDSTYSLSSTLTLSKADYEKHKVYACEVTHQGLSSPVTKSFNRGEC",24.5
13,"humanized antibody hu-02-L3H6 (antibody, human IgG1, kappa, Humanized from ms-02: light chain L3, heavy chain H6) heavy: EVQLQESGPGLVKPSQTLSLTCTVSGYSITSGYTWHWIRQFPGNKLEWIGHIQYTGNTKYNPSLESRVTISVDTSKNQFSLKLSSVTAADTATYYCARGSTNSNDYWGQGTLVTVSS[human IgG1 constant region not written out] light: DIVMTQSPSSLAVSLGERATINCKSSQSLLYSNDQKNYLAWYQQKPGQSPKLLIYWASTRESGVPDRFSGSGSGTDFTLTISSLQAEDVAVYYCQQYFIYPLTFGGGTKLELKRTVAAPSVFIFPPSDEQLKSGTASVVCLLNNFYPREAKVQWKVDNALQSGNSQESVTEQDSKDSTYSLSSTLTLSKADYEKHKVYACEVTHQGLSSPVTKSFNRGEC",29.5
14,"humanized antibody hu-02-L3H7 (antibody, human IgG1, kappa, Humanized from ms-02: light chain L3, heavy chain H7) heavy: EVQLQESGPGLVKPSQTLSLTCTVSGYSITSGYTWHWIRQFPGNKLEWIGHIQYTGNTKYNPSLESRITISRDTSKNQFSLKLSSVTAADTATYYCARGSTNSNDYWGQGTLVTVSS[human IgG1 constant region not written out] light: DIVMTQSPSSLAVSLGERATINCKSSQSLLYSNDQKNYLAWYQQKPGQSPKLLIYWASTRESGVPDRFSGSGSGTDFTLTISSLQAEDVAVYYCQQYFIYPLTFGGGTKLELKRTVAAPSVFIFPPSDEQLKSGTASVVCLLNNFYPREAKVQWKVDNALQSGNSQESVTEQDSKDSTYSLSSTLTLSKADYEKHKVYACEVTHQGLSSPVTKSFNRGEC",13.5

# Source: patent publication US20250263499A1 (SHENGHE CHINA BIOPHARMACEUTICAL, published 2025)
